Experimental data: the supplement of paper PMC4604168 (melanoma cell lines)
The list shows a part of the results. Single values are uncertain, as repeats are few or missing.

Experiments:
Assay in all cases: cell count relative to DMSO control; melanoma cells; higher = more viable cells
Settings in all cases: library dose: low library concentration; 72 h
COLO792 = tested on: COLO792
COLO800 = tested on: COLO800
COLO829 = tested on: COLO829
G361 = tested on: G361
IPC-298 = tested on: IPC-298
IST-MEL1 = tested on: IST-MEL1
LB2518-MEL = tested on: LB2518-MEL
LOXIMVI = tested on: LOXIMVI
MEL-HO = tested on: MEL-HO
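Also: cell number obtained by counting DAPI-stained nuclei in high-throughput microscope images with image analysis software, screen run in 1,536-well plates.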

Row | SMILES | cell count (COLO792) [%] | cell count (COLO800) [%] | cell count (COLO829) [%] | cell count (G361) [%] | cell count (IPC-298) [%] | cell count (IST-MEL1) [%] | cell count (LB2518-MEL) [%] | cell count (LOXIMVI) [%] | cell count (MEL-HO) [%]
1 | Cc1ccc(Nc2nccc(N(C)c3ccc4c(C)n(C)nc4c3)n2)cc1S(N)(=O)=O [Pazopanib] + C[C@@H]1CCN(C(=O)CC#N)C[C@@H]1N(C)c1ncnc2[nH]ccc12 [CP690550] (first compound 0.4 µM, partner dose 1 µM) | 97.4 | 89.8 | 118 | 101 | 79.6 | 102 | 104 | 120 | 101
2 | O=C(/C=C/c1cccnc1)NCCCCC1CCN(C(=O)c2ccccc2)CC1 + Cc1cc(N2CCOCC2)cc2[nH]c(-c3c(NC[C@@H](O)c4cccc(Cl)c4)cc[nH]c3=O)nc12 [BMS536924] (first compound 0.01 µM, partner dose 0.2 µM) | 50 | 13.3 | 75.1 | 10.8 | 38 | 69.7 | 78.4 | 65.5 | 36.4
3 | Cc1ccc(Nc2nccc(N(C)c3ccc4c(C)n(C)nc4c3)n2)cc1S(N)(=O)=O [Pazopanib] + NCC(=O)Nc1ccc(-n2nc(C(F)(F)F)cc2-c2ccc3c(ccc4ccccc43)c2)cc1 [OSU03012] (first compound 0.4 µM, partner dose 1 µM) | 96.7 | 120 | 72.5 | 120 | 77.3 | 88.5 | 106 | 71.1 | 100
4 | O=C(/C=C/c1cccnc1)NCCCCC1CCN(C(=O)c2ccccc2)CC1 + COc1ccc(-c2ccc3c(N4CCOCC4)nc(N4C[C@@H](C)O[C@@H](C)C4)nc3n2)cc1CO [KU0063794] (first compound 0.01 µM, partner dose 0.02 µM) | 55.1 | 39.9 | 85.3 | 10.8 | 41.5 | 73.9 | 87.7 | 45.3 | 42.7
5 | CC1(C)CCC(c2ccc(Cl)cc2)=C(CN2CCN(c3ccc(C(=O)NS(=O)(=O)c4ccc(N[C@H](CCN5CCOCC5)CSc5ccccc5)c(S(=O)(=O)C(F)(F)F)c4)cc3)CC2)C1 + O=C(O)C(=O)Nc1sc2c(c1C(=O)O)CCNC2 [TCS401] (first compound 0.4 µM, partner dose 1.66667 µM) | 42.7 | 72.2 | 122 | 70.6 | 109 | 69.5 | 94 | 55.8 | 73.5
6 | O=C(/C=C/c1cccnc1)NCCCCC1CCN(C(=O)c2ccccc2)CC1 + O=C(O)c1ccc(-c2c[nH]c3ncc(-c4ccccc4)cc23)cc1C1CCCC1 [GSK650394] (first compound 0.01 µM, partner dose 0.16 µM) | 51.4 | 24.8 | 58.9 | 7.92 | 43.8 | 76.6 | 81.7 | 121 | 49.4
7 | Cc1ccc(Nc2nccc(N(C)c3ccc4c(C)n(C)nc4c3)n2)cc1S(N)(=O)=O [Pazopanib] + O=c1cc(-c2cccc3c2Sc2ccccc2S3)oc(N2CCOCC2)c1 [KU55933] (first compound 0.4 µM, partner dose 1 µM) | 95.4 | 103 | 119 | 86.8 | 78.6 | 107 | 128 | 111 | 105
8 | O=C(/C=C/c1cccnc1)NCCCCC1CCN(C(=O)c2ccccc2)CC1 + CN(C)S(=O)(=O)c1ccc2c(c1)/C(=C/c1cc3c([nH]1)CCCC3)C(=O)N2 [SU6656] (first compound 0.01 µM, partner dose 0.4 µM) | 57.8 | 33.4 | 76.6 | 10.6 | 47.9 | 74.6 | 90.1 | 82.7 | 42.7
9 | Cc1ccc(Nc2nccc(N(C)c3ccc4c(C)n(C)nc4c3)n2)cc1S(N)(=O)=O [Pazopanib] + CN(C)S(=O)(=O)c1ccc2c(c1)/C(=C/c1cc3c([nH]1)CCCC3)C(=O)N2 [SU6656] (first compound 0.4 µM, partner dose 0.4 µM) | 98.7 | 111 | 103 | 95.8 | 77.1 | 96.5 | 85.2 | 124 | 90.6
10 | Cc1ccc(Nc2nccc(N(C)c3ccc4c(C)n(C)nc4c3)n2)cc1S(N)(=O)=O [Pazopanib] + NC(=O)Nc1cc(-c2cccc(F)c2)sc1C(=O)N[C@H]1CCCNC1 [AZD7762] (first compound 0.4 µM, partner dose 0.02 µM) | 104 | 81.2 | 90.7 | 103 | 84.9 | 116 | 103 | 71.4 | 114
